Measured values from publication PMC7819943, “Rice protein-binding microarrays: a tool to detect cis-acting elements near promoter regions in rice”.
The other results are listed elsewhere or left out.

Each sequence was assayed against T1, OsWOX13 (Oryza sativa, UniProt Q5QMM3 1-267) (assay: protein-binding microarray (RPBM); PBS, 2% BSA, 51.3 ng/ul salmon testes DNA, 50 uM zinc acetate, 200 nM TF, 25 C, 1 h; high values mean tight binding). Conditions: protein: recombinant; tags: N-terminal polyhistidine and DsRed monomer fusion (pET32a); label: CyDye5-dUTP incorporated in the synthesized complementary strand; 3' TTTTT single-stranded linker to array surface; dsDNA, one strand shown.
T1 sequence: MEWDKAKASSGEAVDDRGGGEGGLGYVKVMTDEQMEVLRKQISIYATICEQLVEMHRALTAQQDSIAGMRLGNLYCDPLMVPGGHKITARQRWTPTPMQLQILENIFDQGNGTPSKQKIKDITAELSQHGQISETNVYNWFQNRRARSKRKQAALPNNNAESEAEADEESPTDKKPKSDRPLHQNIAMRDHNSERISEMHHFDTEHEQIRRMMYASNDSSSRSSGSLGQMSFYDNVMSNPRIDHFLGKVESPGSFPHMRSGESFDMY
Outline: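 A custom Agilent array was converted to double-stranded form by primer extension with Cy5-dUTP and blocked with 2% BSA. Protein at 200 nM in PBS with 2% BSA, salmon testes DNA and 50 µM zinc acetate was applied for 1 h at 25 °C, followed by washing. The proteins were polyhistidine–DsRed N-terminal fusions of transcription factors, expressed in E. coli BL21-CodonPlus and Ni–NTA-purified. The binding signal is per-feature fluorescence intensity (arbitrary units) from an Axon 4000B scanner.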

Row | Sequence | binding signal
1 | ATCTTATCTCTATAATTTATATTTAAACTTTCCTCCGAACCGGAGTCACCTAGTGCAG | 4050 fluorescence intensity (a.u.)
2 | GCCCACTCATAATTTCTCCCTTGATTTGTAAAGAAATAAGCGGAGTCACCTAGTGCAG | 16000 fluorescence intensity (a.u.)
3 | ATTGCTAACAACACAATTATCAGTTCCATCAAAGCTATAGCGGAGTCACCTAGTGCAG | 3940 fluorescence intensity (a.u.)
4 | GCATTTGATTGTGCGAGCTGGGTTTACAGCTACACTTATACGGAGTCACCTAGTGCAG | 15900 fluorescence intensity (a.u.)
5 | TCCTGCAAAATAGATTGGCCGCGTGCGTGTGCGTGTCCACCGGAGTCACCTAGTGCAG | 27100 fluorescence intensity (a.u.)
6 | CATGTTACATTTATTGAACCTAATTTTATATTGTGGATGTCGGAGTCACCTAGTGCAG | 3540 fluorescence intensity (a.u.)
7 | CGTCCAATCACAATCCAACGATCCAACCGACGCGAAACCGCGGAGTCACCTAGTGCAG | 20700 fluorescence intensity (a.u.)
8 | ATCTGATTCATCAATAACAAAAGACATTGTTCCAATCCAGCGGAGTCACCTAGTGCAG | 4820 fluorescence intensity (a.u.)
9 | GCGTAATAGTAATAATTGATTAATGGTGACACGAGAAGGACGGAGTCACCTAGTGCAG | 46600 fluorescence intensity (a.u.)
10 | TAGAATTGATGATACTAGCTATAACTTCCGAGTGAGCACACGGAGTCACCTAGTGCAG | 16900 fluorescence intensity (a.u.)
11 | AATAACTGGTTATCTTCATCATTTTGAGCAATAGCGTCGACGGAGTCACCTAGTGCAG | 4970 fluorescence intensity (a.u.)
12 | TTTGATAAACATATCTTACTTTTCTATCTATTCAAACCACCGGAGTCACCTAGTGCAG | 3380 fluorescence intensity (a.u.)
13 | GAGTTATTAATTGAACACATTTCTTCCGTGTGAGATGTGACGGAGTCACCTAGTGCAG | 10700 fluorescence intensity (a.u.)
14 | ACAATTGGCTAATTGTGTGTTGGATTGTTGGGTGTATGAACGGAGTCACCTAGTGCAG | 22600 fluorescence intensity (a.u.)
15 | GAGAAACGGTAAGATTGACGGATTGGTGGGAATTATATATCGGAGTCACCTAGTGCAG | 6420 fluorescence intensity (a.u.)
16 | TGGCCTAATGATTTAGTAGAGTTTGCACCCTGCAATCGGTCGGAGTCACCTAGTGCAG | 6530 fluorescence intensity (a.u.)
17 | AGGGAATGATTGTTTGAACACACTAAAACTTACGGTTTGCCGGAGTCACCTAGTGCAG | 22300 fluorescence intensity (a.u.)
18 | CATCTGATTTACACTGAATACACTTTTACTTCAACATGTACGGAGTCACCTAGTGCAG | 14600 fluorescence intensity (a.u.)
19 | TTAAATGACATGCCAAAGTTACCTTCGTTTTGTTCTAAGTCGGAGTCACCTAGTGCAG | 3270 fluorescence intensity (a.u.)
20 | AATCCATAATTAGAGAATGTTTACTGTAGCATCACATAGGCGGAGTCACCTAGTGCAG | 15900 fluorescence intensity (a.u.)
21 | ACACAACTTGTTAATTTGACCTGTAGCCCCATCATGTACACGGAGTCACCTAGTGCAG | 3150 fluorescence intensity (a.u.)
22 | TTTGATTATTTGATCTTTGTTCTTCGTGCAGGTTTGAAAACGGAGTCACCTAGTGCAG | 18900 fluorescence intensity (a.u.)
23 | AAAATAGACAGACGGCAAGTTGTACACACATATCCAGGGGCGGAGTCACCTAGTGCAG | 20700 fluorescence intensity (a.u.)
24 | ACATCTCACCGTCAATCTTGTTTTCACGGTACATAATTTGCGGAGTCACCTAGTGCAG | 4610 fluorescence intensity (a.u.)
25 | GCTGATAAGATGTTGATTTGCATGGATTAAGCTATGATTGCGGAGTCACCTAGTGCAG | 28900 fluorescence intensity (a.u.)
26 | TCACTCATTGGAATTAATTAATGTTTTATGTAGTGGTTTTCGGAGTCACCTAGTGCAG | 21900 fluorescence intensity (a.u.)
27 | ACCAGATTGCTTTTATATCCATTAGCCCACATGCAAGCAACGGAGTCACCTAGTGCAG | 11900 fluorescence intensity (a.u.)

Row | Sequence | binding signal
28 | ACGAGCCTAATTGTGTGTAACTTTAGAATAAATTAGTATCCGGAGTCACCTAGTGCAG | 12200 fluorescence intensity (a.u.)
29 | CCGCCGCATCCTCGAATCCAATCATTCAATCAAGGAGGAGCGGAGTCACCTAGTGCAG | 16600 fluorescence intensity (a.u.)
30 | CCCATGATTGATGAGACTTCAGAGCATGTACTGTAGTGGTCGGAGTCACCTAGTGCAG | 43800 fluorescence intensity (a.u.)
31 | GGTGATTTTAGCTGACGTAGCGCCTATATGTATGTTTTGACGGAGTCACCTAGTGCAG | 10200 fluorescence intensity (a.u.)
32 | TCACTGTTATTTAATTATATATATATATATATATTCATGCCGGAGTCACCTAGTGCAG | 8880 fluorescence intensity (a.u.)
33 | TGTAGATGAAATAATTAATAGATAAAGTAGTGAGATACATCGGAGTCACCTAGTGCAG | 7990 fluorescence intensity (a.u.)
34 | TTCCACGTAGTCAATCATTAAGGTTGGACTGAAACGTAATCGGAGTCACCTAGTGCAG | 10300 fluorescence intensity (a.u.)
35 | TGTGAGATGACCAGCGAGTGATTGGTAAACTGTTTCAGTGCGGAGTCACCTAGTGCAG | 17600 fluorescence intensity (a.u.)
36 | AGTGATTAGTAGCAGCAGAAAGAGTGGAAGATTTAGAGGACGGAGTCACCTAGTGCAG | 17800 fluorescence intensity (a.u.)
37 | AATACACTAAAATTACATATGTAATTTAGGGACTTACAATCGGAGTCACCTAGTGCAG | 3220 fluorescence intensity (a.u.)
38 | AACTTCGATCAATCAATCTTCAGTAGAAACCAGCACACCTCGGAGTCACCTAGTGCAG | 26900 fluorescence intensity (a.u.)
39 | TAAAATAATTAATACTCAATTAATAATACGCTAATAGCCCCGGAGTCACCTAGTGCAG | 32700 fluorescence intensity (a.u.)
40 | TGAATATGTCCCAAATTAATTGTCACAATGGAGTACTAATCGGAGTCACCTAGTGCAG | 3200 fluorescence intensity (a.u.)
41 | TGTAACAAACCCTAATCAACATATTCTCGTGACTGGAGGGCGGAGTCACCTAGTGCAG | 8690 fluorescence intensity (a.u.)
42 | TGTCACTTATTTAATTTACTTTGCTTTATACTCCTTCCGTCGGAGTCACCTAGTGCAG | 5350 fluorescence intensity (a.u.)
43 | TACAGATCTATCATGCTTTAAGATTGGTGAGGATACATGTCGGAGTCACCTAGTGCAG | 3720 fluorescence intensity (a.u.)
44 | TTGATTTATTGGTAGATTTGCAAATTGCAATGGAGAAGAACGGAGTCACCTAGTGCAG | 33200 fluorescence intensity (a.u.)
45 | TTGTATAAATTTATAATGCTCTTGAGCGCGTTTGGTTCCTCGGAGTCACCTAGTGCAG | 7920 fluorescence intensity (a.u.)
46 | GAGAATTGAAAGACATGAAAATTCTCAATTCTCTATGACGCGGAGTCACCTAGTGCAG | 13600 fluorescence intensity (a.u.)
47 | ATTTATCACAATCAAAATCAAATCAAACCGAAAAGGGAAGCGGAGTCACCTAGTGCAG | 9210 fluorescence intensity (a.u.)
48 | AACTGATATGTAGGGTATGATTGTAATGAAATTACGATTGCGGAGTCACCTAGTGCAG | 10700 fluorescence intensity (a.u.)
49 | CAAATTGACAACCAGACTGACAAAATTTATAAATAAATGGCGGAGTCACCTAGTGCAG | 24000 fluorescence intensity (a.u.)
50 | CTGTATTCATTAGGGTGGGACTGTATACTATAGTTATTATCGGAGTCACCTAGTGCAG | 4450 fluorescence intensity (a.u.)
51 | GGTGATTGCATTTGATTGGGTGGAAAAGGTTTGATTTTGTCGGAGTCACCTAGTGCAG | 64900 fluorescence intensity (a.u.)
52 | TACTCTGACATGAATTGGTAATTTTATATAGGCTTTATCTCGGAGTCACCTAGTGCAG | 7070 fluorescence intensity (a.u.)
53 | CCTGATGGATTCAGACTTCAAGTCTGCGACCAGTGTAAAACGGAGTCACCTAGTGCAG | 9800 fluorescence intensity (a.u.)
54 | CGTCTAATTAAGCGTAGACGATCTGATTCGCTAGCTCGCACGGAGTCACCTAGTGCAG | 10600 fluorescence intensity (a.u.)
